B1: CPEB3 Ribozyme (parent)
chain: UAACAGGGGGCCACAGCAGAAGCGUUCACGUCGCAGCCCCUGUCAGAUUCUGGUGAAUCUGCGAAUUCUGCUGUAUAUCUC

The source gives no read counts; variants with many changes may rest on few reads.

We go through 84 variants from the RNAGym collection of RNA variant scans (doi:10.1093/nar/gkz1192).

Variants of B1 are the subject of the data set. Nature of the data set: self-cleavage, relative activity (ratio to wild type); higher = more cleavage; in vitro, sequencing. An outline of the steps: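 CPEB3 self-cleaving ribozyme mutant libraries were made by rounds of error-prone PCR, barcoded, and transcribed in vitro with T7 RNA polymerase for 5 hours at 37°C. Cleavage occurred during transcription and a 15 min DNase I step before EDTA stop. RNAs were reverse transcribed with template switching and Illumina-sequenced, with DNA sequencing mapping barcodes to variants. Relative activity is the variant's cleaved/total read fraction divided by wild type's (minimum 5 reads), averaged across three batches.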
In the case of A15G A20G U25A U60A U69A U74C A75U, the self-cleavage was determined as 0.02.
To A13U U43C U67C belongs 0.17; to A13U G19A A45C, 0.27.
Then A15C U26A C32U, with 0.25; and A15G A18U U26C A28U U60C, with 0.33.
For C14U A18G A28G U31A U67C U69C U80C, the self-cleavage was determined as 0.04.
Then A13U A47G A56G U66C, with 0.15; and A15G A21G A56G U60C U66A U74C, with 0.12.
Then A13U U51A U58A, with 0.4.
Then A13U U25C C32A U49C G73A, with 0.08.
Take A13U A45G U49C: the self-cleavage was 0.2.
To A13U U25C U41C U43A U72A U80A belongs 0.07; to A15G A28U A35U G73A U80C, 0.83.
Then A15G A20U G24C C38U U41C, with 0.19; and A13U U31C U41C U78A, with 0.75; and A15G A20U U78A, with 0.22.
Turning to A15G A35U U41C U48A U60G U72A, the self-cleavage was 0.04.
To A15G A45G U80A belongs 0.52; to A15G A28U U54A A56U A64G, 0.13.
Then A15C A20G U26C U41C U54A A56U, with 0.07.
To C14A A18G U48A U60C belongs 0.07.
Turning to C14A A18G U31C U43A, the self-cleavage is 0.19.
With A15C A18G C32A A35U, the self-cleavage worked out at 0.42.
Then A13U C23U A56U U58C, with 0.08; and A15G A18U G46A A47U C71G C79G, with 0.08; and A13U U26C U49C A64U U69C A75U U80C, with 0.09.
Then A13U G16U U54A G63A, with 0.16; and C14U A20G U67C U72C, with 1.23.
Then C14U U41G A57G A77G, with 0.09.
A15G A28G A47G: the self-cleavage turned out to be 0.37.
As to A15C U25A U43A C50A U69A U74C, the self-cleavage was determined as 0.06.
To A15C U31C U41C U72A belongs 0.43; to A13U A45G U48A G52C, 0.19.
To A15G A20U U31G A45U U60A belongs 0.07.
As for C14G A15G A28U, the self-cleavage amounted to 0.33.
To A15C G33C A35C U51A U60A belongs 0.04; to A15G A20G C39U U69A U72A, 0.07; to A15G A21U G24C U54A A65G U69C, 0.06.
To A15C G42A A64G U76C belongs 0.21.
In the case of A13U C38U U54C U76C A77G, the self-cleavage was 0.77.
Then A13U U54C A64U U67A U80A, with 0.2.
In the case of A13U U54G C68U U80C, the self-cleavage turned out to be 0.62.
To A15G A18G A28G U43A U76G A77G belongs 0.14; to C14G A21U U43G U72C, 0.18; to A13U U69C U72A, 0.3.
Regarding A13U G33U A45G A56U, the self-cleavage came to 0.36.
For A13U A47G U54C U80C, the self-cleavage was determined as 0.65.
Then A13U U26A U31C C38G U41G A57G U78C, with 0.03.
A13U U48A U51A U58G: the self-cleavage stood at 0.15.
Then A13U C17A A64G, with 0.33; and A15G A18U A56U U67A, with 0.11.
To A15G A45U A47G A56G belongs 0.16; to C14U G16U A35G U43C U51A U80C, 0.91.
A15C U26A U43C: the self-cleavage was 0.35.
To A13U U26A A35G U41A A77U belongs 0.33.
To C14A A18G A20G U60C belongs 0.23; to A13U A47G U54A U58C, 1.25.
For the variant A15G A20G A35G U41C, the self-cleavage worked out at 0.47.
In the case of C14A A18U A28G G42U A56G U58A C62G, the self-cleavage is 0.03.
For A15G A28U C29U A35U U49C, the self-cleavage worked out at 0.08.
For the variant A13U A56G U60C U78A, the self-cleavage amounted to 0.62.
As for A13U U72C U76G, the self-cleavage was 0.96.
To A13U C17G A18U U25A U72A belongs 0.22; to C14U U26C U67C C71A, 0.24.
Then A15G A21G U25C G30A U60A, with 0.25.
To C14G A15C C79U belongs 0.37.
As for A13U G46C U80A, the self-cleavage turned out to be 0.31.
Then A13U A45G U54C C71A, with 0.2.
Then A15G A28G U67C, with 0.22; and C14A A15G A47U U60C, with 0.16.
In the case of C14U U41G U49C G55C U58C, the self-cleavage stood at 0.13.
A15G A45U G46A U78C U80C: the self-cleavage was 0.08.
Then A13U A45G U58A U66G, with 0.28.
Take C14U A15G U41A: the self-cleavage was 0.13.
To C14U A18G U25C A35G belongs 0.09; to A15C A28C G33A A35U U48C A75U U80C, 0.05; to A15G A20G C29U U31C A45G, 0.16.
To A13U G24A C29U C38G A77G U80A belongs 0.04; to A13U G19U A45U A77G, 0.28.
Take A15G A20G A28U A45U C62U U72A: the self-cleavage turned out to be 0.1.
Then A13U U25A C34U U43C, with 0.1; and A15C A35U U72A, with 0.82; and A13U G33A U41A U60C U76C, with 0.08.
Take A13U U26C A57G U72C A77G: the self-cleavage turned out to be 0.23.
